Test results as given in the supplement of paper PMC9446081.
Hit rate of the full screen: of about 39,000 compounds, about 220 (0.56%) showed activity. Some of the results follow.
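Also: static incubation at 37 °C against the wild-type strain, values averaged over two biological replicates.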

What follows are compounds tested on Escherichia coli K-12 BW25113 (assay: relative growth (OD600 normalised to plate interquartile mean) (fraction); higher = less growth inhibition, active = 0.2 or less). Conditions: 50 µM; LB; incubation time: overnight (16-24 h).
For `C=CCOC(=O)[C@H]1[C@@H]2C(=O)O[C@@H](c3ccccc3)[C@@H](c3ccccc3)N2[C@@H](c2ccc(OCCOC(=O)[C@@H]3C[C@@H]4C(=O)N5CCC[C@H]5C(=O)N4[C@@H]3c3ccc(O)cc3)cc2)[C@]12C(=O)Nc1ccccc12`, the relative growth was inactive: 1.03.
`Cc1noc(C)c1S(=O)(=O)N(C)C[C@@H]1Oc2ccc(NC(=O)Nc3ccccc3)cc2CC(=O)N([C@@H](C)CO)C[C@@H]1C` was tested, and the relative growth was inactive: 1.02.
For `C[C@H]1CCCCO[C@H](CN(C)C(=O)NC2CCCCC2)[C@@H](C)CN([C@@H](C)CO)C(=O)c2cc(NC(=O)C3CCCCC3)ccc2O1`, the relative growth was inactive: 0.762.
With `COc1ccc(NC(=O)N(C)C[C@H]2OCCCC[C@@H](C)Oc3ccc(NS(=O)(=O)c4c(C)noc4C)cc3C(=O)N([C@@H](C)CO)C[C@H]2C)cc1` the relative growth was inactive: 1.01.
With `CC(C)NC(=O)Nc1ccc2c(c1)C(=O)N([C@H](C)CO)C[C@H](C)[C@@H](CN(C)S(=O)(=O)c1cn(C)cn1)OCCCC[C@H](C)O2` the relative growth was inactive: 0.881.
For `COCC(=O)N(C)C[C@H]1Oc2cc(C#Cc3cccnc3)ccc2S(=O)(=O)N([C@@H](C)CO)C[C@H]1C`, the relative growth was inactive: 1.05.
In the case of `C[C@H](CO)N1C[C@H](C)[C@@H](CN(C)C(=O)Nc2ccccc2C(F)(F)F)OCc2cnnn2CCCC1=O`, the relative growth is reported as inactive: 0.982.
`C=C(NC(=O)C(=C)NC(=O)c1csc(C2=N[C@@H]3c4csc(n4)[C@@H]4NC(=O)c5csc(n5)[C@H](C(C)(O)[C@@H](C)O)NC(=O)[C@H]5CSC(=N5)/C(=C/C)NC(=O)[C@H]([C@@H](C)O)NC(=O)c5csc(n5)[C@]3(CC2)NC(=O)[C@@H](C)NC(=O)C(=C)NC(=O)[C@@H](C)NC(=O)[C@@H]([C@H](C)CC)N[C@H]2C=Cc3c([C@@H](C)O)cc(nc3[C@@H]2O)C(=O)O[C@H]4C)n1)C(N)=O` (stereo partly drawn) was tested, and the relative growth was inactive: 0.966.
With `C[C@H]1CN([C@@H](C)CO)C(=O)c2cc(-c3cccc(C(=O)N(C)C)c3)cnc2O[C@@H]1CN(C)S(=O)(=O)c1ccccc1` the relative growth was inactive: 1.
For `[N-]=[N+]=NCc1ccccc1C[C@]1(C(=O)NCc2ccccc2)N=C(c2ccc(OCCCO)cc2)O[C@H]1c1ccccc1`, the relative growth was inactive: 1.04.
With `COc1cccc(OCc2ccc(Cn3nc(NC(=O)Nc4c(OC)cccc4OC)c4ccccc43)cc2)c1` the relative growth was inactive: 1.
In the case of `COc1ccccc1S(=O)(=O)N[C@@H]1C=C[C@H](CC(=O)N2CCN(C)CC2)O[C@H]1CO`, the relative growth is reported as inactive: 0.987.
`O=C(Nc1nccs1)[C@H]1[C@H](CO)[C@H]2Cn3c(cccc3=O)[C@@H]1N2C(=O)C1CC1` was tested, and the relative growth was inactive: 1.
